# Assay results as given in the supplement of paper PMC8728848.
# The list shows a part of the results.
# Columns and labels:
# Experiment in all cases: glycan array binding signal (z-score within array); higher = stronger binding
# Settings in all cases: glycan notation: IUPAC condensed, linker removed
# [1] = molecular target: Neu5Ac(a2-6)Gal(b1-4)GlcNAc(b1-2)Man(a1-3)[Man(a1-6)]Man(b1-4)GlcNAc(b1-4)GlcNAc
# How it was run: (§1)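 Arrays were curated from the Consortium for Functional Glycomics database, 3228 in total, and kept only where the protein sequence was available. Binding is expressed as a within-array Z-score. This score was averaged across arrays of the same protein sequence at different concentrations or buffers and across linkers, and negative values can be read as non-binding.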
# [2] = molecular target: Neu5Ac(a2-6)Gal(b1-4)GlcNAc(b1-2)Man(a1-3)[Neu5Ac(a2-3)Gal(b1-4)GlcNAc(b1-2)Man(a1-6)]Man(b1-4)GlcNAc(b1-4)GlcNAc
# How it was run: as §1
# [3] = molecular target: Neu5Ac(a2-6)Gal(b1-4)GlcNAc(b1-2)Man(a1-3)[Neu5Ac(a2-6)Gal(b1-4)GlcNAc(b1-2)Man(a1-6)]Man(b1-4)GlcNAc(b1-4)GlcNAc
# How it was run: as §1
# [4] = molecular target: Neu5Ac(a2-6)Gal(b1-4)GlcNAc(b1-2)Man(a1-3)[Neu5Ac(a2-6)Gal(b1-4)GlcNAc(b1-2)Man(a1-6)]Man(b1-4)GlcNAc(b1-4)[Fuc(a1-6)]GlcNAc
# How it was run: as §1
# [5] = molecular target: Neu5Ac(a2-6)Gal(b1-4)GlcNAc(b1-2)Man(a1-6)Man(b1-4)GlcNAc(b1-4)GlcNAc
# How it was run: as §1
# [6] = molecular target: Neu5Ac(a2-6)Gal(b1-4)GlcNAc(b1-2)Man(a1-6)[Gal(b1-4)GlcNAc(b1-2)Man(a1-3)]Man(b1-4)GlcNAc(b1-4)GlcNAc
# How it was run: as §1
# [7] = molecular target: Neu5Ac(a2-6)Gal(b1-4)GlcNAc(b1-2)Man(a1-6)[GlcNAc(b1-2)Man(a1-3)]Man(b1-4)GlcNAc(b1-4)GlcNAc
# How it was run: as §1
# [8] = molecular target: Neu5Ac(a2-6)Gal(b1-4)GlcNAc(b1-2)Man(a1-6)[Man(a1-3)]Man(b1-4)GlcNAc(b1-4)GlcNAc
# How it was run: as §1
# [9] = molecular target: Neu5Ac(a2-6)Gal(b1-4)GlcNAc(b1-2)[Neu5Ac(a2-6)Gal(b1-4)GlcNAc(b1-4)]Man(a1-3)[GlcNAc(b1-4)][Neu5Ac(a2-6)Gal(b1-4)GlcNAc(b1-2)[Neu5Ac(a2-6)Gal(b1-4)GlcNAc(b1-6)]Man(a1-6)]Man(b1-4)GlcNAc(b1-4)GlcNAc
# How it was run: as §1
# [10] = molecular target: Neu5Ac(a2-6)Gal(b1-4)GlcNAc(b1-2)[Neu5Ac(a2-6)Gal(b1-4)GlcNAc(b1-4)]Man(a1-3)[GlcNAc(b1-4)][Neu5Ac(a2-6)Gal(b1-4)GlcNAc(b1-4)Man(a1-6)]Man(b1-4)GlcNAc(b1-4)GlcNAc
# How it was run: as §1
# [11] = molecular target: Neu5Ac(a2-6)Gal(b1-4)GlcNAc(b1-2)[Neu5Ac(a2-6)Gal(b1-4)GlcNAc(b1-6)]Man(a1-6)[Neu5Ac(a2-6)Gal(b1-4)GlcNAc(b1-2)Man(a1-3)][GlcNAc(b1-4)]Man(b1-4)GlcNAc(b1-4)GlcNAc
# How it was run: as §1
# [12] = molecular target: Neu5Ac(a2-6)Gal(b1-4)GlcNAc(b1-3)Gal(b1-3)GlcNAc
# How it was run: as §1
# [13] = molecular target: Neu5Ac(a2-6)Gal(b1-4)GlcNAc(b1-3)Gal(b1-4)GlcNAc
# How it was run: as §1
# [14] = molecular target: Neu5Ac(a2-6)Gal(b1-4)GlcNAc(b1-3)Gal(b1-4)GlcNAc(b1-2)Man(a1-3)[Neu5Ac(a2-6)Gal(b1-4)GlcNAc(b1-3)Gal(b1-4)GlcNAc(b1-2)Man(a1-6)]GalNAc
# How it was run: as §1
# [15] = molecular target: Neu5Ac(a2-6)Gal(b1-4)GlcNAc(b1-3)Gal(b1-4)GlcNAc(b1-3)Gal(b1-4)GlcNAc
# How it was run: as §1
# [16] = molecular target: Neu5Ac(a2-6)Gal(b1-4)GlcNAc(b1-3)Gal(b1-4)GlcNAc(b1-3)Gal(b1-4)GlcNAc(b1-2)Man(a1-3)[Neu5Ac(a2-6)Gal(b1-4)GlcNAc(b1-3)Gal(b1-4)GlcNAc(b1-3)Gal(b1-4)GlcNAc(b1-2)Man(a1-6)]GalNAc
# How it was run: as §1
# [17] = molecular target: Neu5Ac(a2-6)Gal(b1-4)GlcNAc(b1-3)Gal(b1-4)GlcNAc(b1-3)GalNAc
# How it was run: as §1
# [18] = molecular target: Neu5Ac(a2-6)Gal(b1-4)GlcNAc(b1-3)Gal(b1-4)GlcNAc(b1-3)[Neu5Ac(a2-6)Gal(b1-4)GlcNAc(b1-3)Gal(b1-4)GlcNAc(b1-6)]GalNAc
# How it was run: as §1
# [19] = molecular target: Neu5Ac(a2-6)Gal(b1-4)GlcNAc(b1-3)Gal(b1-4)GlcNAc(b1-6)[Gal(b1-3)]GalNAc
# How it was run: as §1
# [20] = molecular target: Neu5Ac(a2-6)Gal(b1-4)GlcNAc(b1-3)Gal(b1-4)[Fuc(a1-3)]GlcNAc(b1-3)Gal(b1-4)[Fuc(a1-3)]GlcNAc
# How it was run: as §1
# [21] = molecular target: Neu5Ac(a2-6)Gal(b1-4)GlcNAc(b1-3)GalNAc
# How it was run: as §1
# [22] = molecular target: Neu5Ac(a2-6)Gal(b1-4)GlcNAc(b1-3)[Neu5Ac(a2-6)Gal(b1-4)GlcNAc(b1-6)]GalNAc
# How it was run: as §1
# [23] = molecular target: Neu5Ac(a2-6)Gal(b1-4)GlcNAc(b1-6)GalNAc
# How it was run: as §1
# [24] = molecular target: Neu5Ac(a2-6)Gal(b1-4)GlcNAc(b1-6)[Gal(b1-3)GlcNAc(b1-3)]Gal(b1-4)Glc
# How it was run: as §1
# [25] = molecular target: Neu5Ac(a2-6)Gal(b1-4)GlcNAc(b1-6)[Gal(b1-3)]GalNAc
# How it was run: as §1
# [26] = molecular target: Neu5Ac(a2-6)Gal(b1-4)GlcNAc6S
# How it was run: as §1
# [27] = molecular target: Neu5Ac(a2-6)GalNAc
# How it was run: as §1
# [28] = molecular target: Neu5Ac(a2-6)GalNAc(b1-4)GlcNAc
# How it was run: as §1
# [29] = molecular target: Neu5Ac(a2-6)GalNAc(b1-4)GlcNAc6S
# How it was run: as §1
# [30] = molecular target: Neu5Ac(a2-6)GlcNAc(b1-4)GlcNAc
# How it was run: as §1
# [31] = molecular target: Neu5Ac(a2-6)GlcNAc(b1-4)GlcNAc(b1-4)GlcNAc
# How it was run: as §1
binder,measurement,setting,value
"MSMEG3662-2a (Mycobacterium smegmatis), A0QYH7_MYCS2 (protein) MGDTLTAGQKLERGGSLQSGNGAYTLTLQDDGNLVLYARDKAVWSTGTNGQDVVRAEVQTDGNFVLYTAEKPVWHTDTKGKKEVKLVLQDDRNLVLYAKDGPAWSSKTDTTEPPPPAPEPEKEAEVAPAAAEEAAPAPVAEPAPAEPAPAAPPPAPPAPRTYTVVSGDTLWAIAERFYGDGSKYQQIADASGIANPDLIHPGQVLTIP",glycan array binding signal (z-score),[1],-0.164
same,glycan array binding signal (z-score),[2],0.058
same,glycan array binding signal (z-score),[3],-0.046
same,glycan array binding signal (z-score),[4],-0.158
same,glycan array binding signal (z-score),[5],-0.146
same,glycan array binding signal (z-score),[6],-0.119
same,glycan array binding signal (z-score),[7],-0.129
same,glycan array binding signal (z-score),[8],-0.14
same,glycan array binding signal (z-score),[9],-0.144
same,glycan array binding signal (z-score),[10],0.058
same,glycan array binding signal (z-score),[11],-0.171
same,glycan array binding signal (z-score),[12],-0.094
same,glycan array binding signal (z-score),[13],-0.118
same,glycan array binding signal (z-score),[14],0.002
same,glycan array binding signal (z-score),[15],-0.108
same,glycan array binding signal (z-score),[16],0.293
same,glycan array binding signal (z-score),[17],0.076
same,glycan array binding signal (z-score),[18],-0.017
same,glycan array binding signal (z-score),[19],-0.189
same,glycan array binding signal (z-score),[20],-0.129
same,glycan array binding signal (z-score),[21],-0.179
same,glycan array binding signal (z-score),[22],-0.088
same,glycan array binding signal (z-score),[23],-0.052
same,glycan array binding signal (z-score),[24],0.089
same,glycan array binding signal (z-score),[25],0.051
same,glycan array binding signal (z-score),[26],-0.15
same,glycan array binding signal (z-score),[27],-0.07
same,glycan array binding signal (z-score),[28],0.165
same,glycan array binding signal (z-score),[29],-0.183
same,glycan array binding signal (z-score),[30],-0.058
same,glycan array binding signal (z-score),[31],1.58
